PubChem BioAssay AID686979 (National Center for Advancing Translational Sciences (NCATS), 2013)
Hit rate of the full screen: of about 420,000 compounds, about 50,000 (12%) were called active. The shares of active, inactive and inconclusive entries below differ from those in the screen. Calls come from the whole dose curve; as a rule, active = well fitted inhibition curve with a large enough effect; inconclusive = small, poorly fitted or top-dose-only effect; inactive = flat fitted curve, though single readings scatter. No potency is given beside an inconclusive call; the fits are too rough.

Assay: qHTS for Inhibitors of human tyrosyl-DNA phosphodiesterase 1 (TDP1): qHTS in cells in presence of CPT; note: nearly all actives have a fitted effect of over 55% in size
Conditions: chicken DT40 Tdp1-/-;hTDP1 cells + 20 nM CPT, ATP luminescence, 48 h; activity change, negative = growth inhibition: at 46.2 µM (top of the series)
In short: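 Chicken DT40 Tdp1-/- cells complemented with human TDP1, 400 cells/well, exposed to compounds plus 20 nM camptothecin for at least 48 h at 37 C; viability read as ATP content by CellTiter-Glo luminescence.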
% is set by controls: 0 for no effect and ±100 for the full control effect; potency is the fitted concentration of half-maximal effect; tags give direction and shape of the fitted curve.

| Compound | Potency | activity change, negative = growth inhibition |
| --- | --- | --- |
| CCCC(=O)Nc1cccc(NC(=O)c2ccc3c(c2)OCCO3)c1 | inconclusive [inhibitor, single point] |  |
| COc1cc(C2C(=O)N(C3CCCCCC3)CC(=O)N2CCc2ccccc2)ccc1OC(C)C (stereo not given) | active: 16.4 µM |  |
| Cc1ccc(/C=N\NC(=O)CNC(=O)C23CC4CC(CC(C4)C2)C3)o1 |  | inactive: -0.728% |
| O=C(NCCOc1ccccc1)c1ccc2c(c1)S(=O)(=O)c1cc(Cl)ccc1C2=O | inconclusive [inhibitor, partial curve, poor fit] |  |
| COC(=O)c1ccc(CN2[C@H](C(=O)OC)C[C@@]3(O)[C@@H](O)[C@@H](O)[C@@H](O)C[C@@H]23)cc1 | inconclusive [inhibitor, single point] |  |
| COc1cccc2cc(C(=O)C3=C(O)C(=O)N(CCN4CCOCC4)C3c3cccc(Cl)c3)oc12 (stereo not given) | inconclusive [inhibitor, single point] |  |
| C=CCN1c2ccccc2Sc2cnccc21 | inconclusive [inhibitor, single point] |  |
| CC1=Nc2cc(C(=O)NCCCN3CCOCC3)ccc2Sc2c(C)ccc(C)c21 | inconclusive [inhibitor, single point] |  |
| COc1ccccc1CNS(=O)(=O)c1cnc(N)nc1 |  | inactive: 0.875% |
| CCCc1ccc(C(O)c2ncc(-c3ccc(C)cc3)[nH]2)cc1 (stereo not given) | inconclusive [inhibitor, single point] |  |
| C#Cc1ccc([C@@H]2C=C(C(=O)NCc3ccccc3)O[C@H](OCC)[C@H]2CCCO)cc1 | inconclusive [inhibitor, single point] |  |
| CC(C)[C@H](NS(=O)(=O)c1ccc2c(c1)OCCO2)C(=O)OCC(=O)Nc1cc(Cl)ccc1Cl | inconclusive [inhibitor, single point] |  |
| CCN(CC)c1nc2c(c(=O)[nH]c(=O)n2C)n1CCOc1ccccc1 | inconclusive [inhibitor, single point] |  |
| NNC(=O)CNC(=O)CNS(=O)(=O)c1ccccc1 |  | inactive: 18% |
| COc1ccc(-c2nnc(NC(=O)c3ccccc3C)o2)cc1 | active: 16.4 µM |  |
| C#CCNc1nc(C(C)C)nc2c1nnn2Cc1ccccc1F | inconclusive [inhibitor, partial curve] |  |
| O=S(=O)(Cc1cc(N2CCOCC2)nc(-c2ccccn2)n1)c1ccccc1 | active: 10.3 µM |  |
| CCOC(=O)C1(CCOc2ccccc2)CCN(Cc2ccc3nonc3c2)CC1 | inconclusive [inhibitor, single point] |  |
| O=C(COc1ccc(Cl)cc1Cl)N(c1ccccn1)C1CCCCC1 | active: 25.9 µM |  |
| CNC(=O)c1ccc(=O)n(Cc2cccc(C(F)(F)F)c2)c1 |  | inactive: 24.6% |
| S=C(NCC1COc2ccccc2O1)Nc1ccccc1 (stereo not given) |  | inactive: -17.9% |
| O=C(Nc1cccc([N+](=O)[O-])c1)c1ccc2c(c1)C(=O)N(c1ccccn1)C2=O | inconclusive [inhibitor, single point] |  |
| O=C(CSc1ncnc2c1cnn2CCc1ccccc1)Nc1cccc(C(F)(F)F)c1 | inconclusive [inhibitor, single point] |  |
| COc1ccccc1CN(C)C(=O)c1ccc(S(=O)(=O)NCc2ccco2)cc1 | inconclusive [inhibitor, single point] |  |

| Compound | Potency | activity change, negative = growth inhibition |
| --- | --- | --- |
| S=C(NC1CCCCC1)NN1CCOCC1 |  | inactive: -5.84% |
| c1csc(CNc2ncncc2-c2ccc3c(c2)OCO3)c1 | inconclusive [inhibitor, single point] |  |
| O=[N+]([O-])c1cc(N=Nc2ccc3ccccc3c2)ccc1O | active: 18.4 µM |  |
| COc1ccccc1/C=C1/SC(=S)N(CCC(=O)Nc2cccnc2)C1=O | inconclusive [inhibitor, single point] |  |
| CCCCC(=O)NCCNc1nc2c(c(=O)n(C)c(=O)n2C)n1Cc1ccccc1 | inconclusive [inhibitor, partial curve] |  |
| Cc1ccc(CN2CCN(CC(=O)N=Nc3c(O)[nH]c4ccccc34)CC2)cc1 | inconclusive [inhibitor, single point] |  |
| NS(=O)(=O)c1ccc(NC(=S)N2CCN(c3cccc(Cl)c3)CC2)cc1 | inconclusive [inhibitor, single point] |  |
| CCN(CC)c1ccc(NC(=O)c2cc3ccccc3o2)c(C)c1 |  | inconclusive: -30.7% [inhibitor] |
| O=c1oc2ccc3ccccc3c2cc1-c1nnc(Nc2ccc(F)cc2)s1 | inconclusive [inhibitor, full curve] |  |
| CN(CCOc1ccc(Cl)cc1)CC(O)c1ccccc1 (stereo not given) | inconclusive [inhibitor, single point] |  |
| COc1cc(CNC(=O)c2cccc(COc3ccc(Cl)cc3)c2)cc(OC)c1 | inconclusive [inhibitor, single point] |  |
| Cc1ccc(N2CC(C)Cn3c2nc2c3c(=O)n(Cc3cccc(Cl)c3)c(=O)n2C)cc1 (stereo not given) |  | inactive: -2% |
| COc1ccc(NC(=O)c2oc3ccc(S(=O)(=O)N4CCOCC4)cc3c2C)cc1 | active: 11.6 µM |  |
| CCCCn1c(N)c(N(CC)C(=O)c2c(C)noc2C)c(=O)[nH]c1=O |  | inactive: 6.27% |
| COc1ccc(NC(=S)N(CCC(C)C)C2CCN(C(C)=O)CC2)cc1 |  | inactive: -1.92% |
| C/C(CCN1CCc2nc(-c3ccccc3)c(-c3ccccc3)cc2C1)=N\OC[C@@H](C)[C@H](OCc1ccccc1)C(C)C | inconclusive [inhibitor, single point] |  |
| COCCn1c(=O)c(-c2ccccc2)nc2cnc(Oc3ccc(OC)cc3)nc21 | inconclusive [inhibitor, single point] |  |
| COc1ccc(C2c3c(n(C)c4ccccc34)C(=O)N2CC(=O)Nc2cccc(F)c2)cc1 (stereo not given) | inconclusive [inhibitor, single point] |  |
| COc1cc(CN2CCCC(C(=O)Nc3cccc(-n4cccn4)c3)C2)ccc1F (stereo not given) | inconclusive [inhibitor, single point] |  |
| Cc1ccccc1S(=O)(=O)NCC[C@@H]1CC[C@@H](NC(=O)C2CCCC2)[C@@H](CO)O1 | inconclusive [inhibitor, partial curve] |  |
| O=C1S/C(=C/c2ccc(N3CCOCC3)o2)C(=O)N1Cc1ccc(F)cc1 | inconclusive [inhibitor, single point] |  |
| CC(C)(C)OC(=O)N[C@@H](Cc1ccccc1)c1nnc(SCC(=O)c2ccc(Cl)cc2)o1 | inconclusive [inhibitor, single point] |  |
| CCN(CC(=O)NC)S(=O)(=O)c1ccc(Br)cc1 |  | inactive: 5.68% |
| CC(NC(=O)c1ccncc1)c1ccc(Cl)cc1Cl (stereo not given) | inconclusive [inhibitor, single point] |  |

| Compound | Potency | activity change, negative = growth inhibition |
| --- | --- | --- |
| Oc1ccc(-c2csc(Nc3ccccn3)n2)cc1O | active: 5.17 µM |  |
| CCCN(CC(=O)Nc1ccccc1C)C(=O)c1ccc(-c2ccccc2)cc1 |  | inactive: -26.8% |
| CN1CCN(CCCNC(=O)c2ccc(/C=C3\Sc4ccccc4N(Cc4ccc(F)cc4)C3=O)cc2)CC1 | inconclusive [inhibitor, single point] |  |
| COc1ccccc1-n1c(SCC(=O)NC2CCS(=O)(=O)C2)nc2ccccc2c1=O (stereo not given) | inconclusive [inhibitor, single point] |  |
| COc1cccc(C(C2=C(O)CC(C)(C)CC2=O)C2C(=O)CC(C)(C)CC2=O)c1 (stereo not given) |  | inactive: 9.75% |
| N#C/C(=C/c1ccc2c(c1)OCO2)C(=O)NCCc1c[nH]c2ccccc12 | inconclusive [inhibitor, single point] |  |
| Cc1ccc(-n2nc3c(=O)n(C(C)C(=O)NCc4ccco4)nc(C)c3c2C)cc1 (stereo not given) | inactive |  |
| NS(=O)(=O)c1ccc(CNC(=O)Cn2nc(C(F)F)cc2C(F)F)cc1 |  | inactive: 0.258% |
| Cc1[nH]c2ccccc2c1C(=O)NS(=O)(=O)Nc1ccc(F)cc1 |  | inactive: -1.19% |
| c1ccc2nc(N3CCN(Cc4ccc5c(c4)OCO5)CC3)cnc2c1 |  | inactive: -1.46% |
| CN(C)C(=O)c1ccc(Nc2ncnc3sc4c(c23)CCCCC4)cc1 | inconclusive [inhibitor, single point] |  |
| COc1ccc(Cn2nnnc2C(c2cc3ccc(OC)cc3[nH]c2=O)N2CCC(C)CC2)cc1 (stereo not given) | inconclusive [inhibitor, single point] |  |
| CC(O)(c1ccc(F)c(F)c1)c1nc(-c2ccccc2)cs1 (stereo not given) | inconclusive [inhibitor, single point] |  |
| O=C1OCCN1C(=O)[C@H]1[C@H](c2ccccc2)C(c2ccc(F)cc2)=NN1c1ccc(Br)cc1 | inconclusive [inhibitor, single point] |  |
| O=C(CCCc1ccccc1)Nc1ccc(Br)cc1F | active: 14.6 µM |  |
| COC(=O)c1ccc(NC(=O)c2cccc(N3C(=O)CCC3=O)c2)cc1 |  | inactive: 4.25% |
| COCCCNC(=S)N1CCN(c2ccc([N+](=O)[O-])cc2)CC1 | active: 16.4 µM |  |
| CCn1c2ccccc2c2cc(NC(=O)c3ccc(Br)o3)ccc21 | inconclusive [inhibitor, single point] |  |
| Cc1[nH]n(-c2ccccc2)c(=O)c1C(c1cccc([N+](=O)[O-])c1O)c1c(C)[nH]n(-c2ccccc2)c1=O |  | inactive: -22.4% |
| CCOC(=O)Cn1c2c(c(=N)c3ccccc31)CCC2 |  | inactive: -10% |
| O=S(=O)(Cc1ccccc1)N1CCN(c2ncccn2)CC1 |  | inactive: 3.34% |
| COc1ccc(C(=O)C2CCCN(C3Cc4ccccc4C3)C2)cc1OC (stereo not given) |  | inactive: -13.5% |
